Assay results taken from publication PMC3526290, “CAF-1-induced oligomerization of histones H3/H4 and mutually exclusive interactions with Asf1 guide H3/H4 transitions among histone chaperones and DNA” (Nucleic Acids Research, 2012).

How the values were obtained:
[1] = molecular target: T1, Chromatin Assembly Factor 1 (CAF-1) complex: Cac1, Cac2, Cac3 (Saccharomyces cerevisiae, UniProt Q12495; Q04199; P13712); experiment: fluorescence polarisation; fluorescence anisotropy; 10 nM *Asf1 (alone or pre-bound to 20 nM H3/H4) or 100 nM *Asf1^1-169, Cac2 or CAF-1 titrated; 20 mM HEPES, 150 mM NaCl, pH 7.4, 20°C; details: both partners purified
T1 construct: Cac1 (p90), subunit of CAF-1, Saccharomyces cerevisiae; Cac2 (p60), subunit of CAF-1, Saccharomyces cerevisiae; Cac3 (p48 or MSi1p), subunit of CAF-1, Saccharomyces cerevisiae; also called intact CAF-1 complex; tri-subunit CAF-1 complex; source: Sf9 insect cells co-infected with baculoviruses, purified (StrepTrap HP, Superdex 200); not shown: Strep II, C-terminal, kept; His6, C-terminal, kept; …

[2] = molecular target: T2, Cac2 (p60), full-length, CAF-1 subunit (budding yeast, UniProt Q04199); experiment: as above; details: both partners purified
T2 construct: Cac2 (p60), subunit of CAF-1, budding yeast, full length; Plasmid construction is in the Supplementary Methods; also called full-length Cac2; source: E. coli Rosetta pLysS, purified (Ni-NTA, Superdex 200)

B1: Asf1^[…] labeled with Alexa Fluor 532 (*Asf1^[…]) (domain or fragment)
chain: not shown
modifications: Alexa Fluor 532
Kd [1]: 3.4 µM | Kd [2]: 3.3 µM
